Test system: CD45+ leukocyte cells (macrophages, monocytes, lymphocytes, granulocytes)
Assay: Uptake of iron binding proteins by CD45+ leukocyte cells in culture
Assay type: cell-based, mouse
Conditions: comparison between leukocyte subtypes
Experimental: (§1) Obtained cells are incubated in ferritin solution for a time and at the concentration sufficient to ensure proper ratio of ferritin/cell for their full load and also to ensure proper contrast content to obtain proper imaging). The time and concentration may vary depending on the number of molecules encapsulated/adsorbed into the ferritin cage, status of cell activation, condition and number of their intended administration.
For example, to ensure proper load with ferritins, cells are incubated for 1-4 hrs in ferritin solution 0.2 mg/ml in standard culture conditions. The frame of ferritin concentration may vary at least between 0.01 and 4 mg/ml as well as incubation time (5 min-6 hrs or more). Adjusting time and concentration of ferritin load to cells, the influence of ferritin and treatment conditions on cell viability should be minded.
as §1, with “haemoglobin” for “ferritin”, “haemoglobin/cell” for “ferritin/cell”, “imaging.” for “imaging).”, “linked with” for “encapsulated/adsorbed into”, “haemoglobin molecule,” for “ferritin cage,”, “administration. […]” for “administration.”

B1: complex comprising haemoglobin and label: haemoglobin covalently or non-covalently bound to a label (conjugate, UniProt P69905 2-142; P68871 2-147, looked up)
Hemoglobin subunit alpha: VLSPADKTNVKAAWGKVGAHAGEYGAEALERMFLSFPTTKTYFPHFDLSHGSAQVKGHGKKVADALTNAVAHVDDMPNALSALSDLHAHKLRVDPVNFKLLSHCLLVTLAAHLPAEFTPAVHASLDKFLASVSTVLTSKYR
Hemoglobin subunit beta: VHLTPEEKSAVTALWGKVNVDEVGGEALGRLLVVYPWTQRFFESFGDLSTPDAVMGNPKVKAHGKKVLGAFSDGLAHLDNLKGTFATLSELHCDKLHVDPENFRLLGNVLVCVLAHHFGKEFTPPVQAAYQKVVAGVANALAHKYH
modifications: label
relative uptake/loading of complex by leukocyte subtype: significantly larger amounts of this complex could be loaded into M1 macrophages than into M2 macrophages

— US12485192B2, “Cellular targeted label delivery system” (CELLIS AG, priority 2016, dated 2025)
